Measured values from the supplement of paper PMC3334620.
The full ranking holds about 33,000 sequences; the median of “E-score (-0.5 to 0.5)” is about -0.011, and the highest 2% start at about 0.28. This is one part of the list.

Molecular target: T1, Gcr1 (UniProt P07261)
T1 sequence: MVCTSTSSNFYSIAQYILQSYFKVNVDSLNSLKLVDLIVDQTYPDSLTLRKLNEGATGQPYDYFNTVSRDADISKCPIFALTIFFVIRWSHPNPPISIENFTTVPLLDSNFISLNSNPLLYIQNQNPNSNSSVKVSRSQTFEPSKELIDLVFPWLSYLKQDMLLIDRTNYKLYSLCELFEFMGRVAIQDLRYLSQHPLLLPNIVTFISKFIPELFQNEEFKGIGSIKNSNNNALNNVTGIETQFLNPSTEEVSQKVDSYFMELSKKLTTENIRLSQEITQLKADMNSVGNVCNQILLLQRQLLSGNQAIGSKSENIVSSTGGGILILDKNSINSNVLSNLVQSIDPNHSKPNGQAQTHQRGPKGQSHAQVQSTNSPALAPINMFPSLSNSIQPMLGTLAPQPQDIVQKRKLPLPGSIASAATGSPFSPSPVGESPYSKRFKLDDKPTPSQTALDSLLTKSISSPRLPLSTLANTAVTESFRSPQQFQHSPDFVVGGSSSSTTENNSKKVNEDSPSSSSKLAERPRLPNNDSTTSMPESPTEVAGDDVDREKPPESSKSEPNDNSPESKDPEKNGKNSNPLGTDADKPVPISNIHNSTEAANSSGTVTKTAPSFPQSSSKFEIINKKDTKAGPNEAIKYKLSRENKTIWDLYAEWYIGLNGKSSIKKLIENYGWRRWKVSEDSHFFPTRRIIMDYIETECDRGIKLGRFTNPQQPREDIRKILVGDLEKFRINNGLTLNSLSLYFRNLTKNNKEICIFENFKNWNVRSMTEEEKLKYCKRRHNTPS
Experiment: PBM E-score (8-mer binding enrichment) (E-score (-0.5 to 0.5)); higher = stronger / more preferred TF binding; most listed sequences are background and not binding sites
Conditions: protein concentration: 100 nM; construct: GST-full length
Procedure: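 Universal 'all 10-mer' protein binding microarrays (Agilent AMADID 015681) probed with GST-tagged S. cerevisiae TFs (full-length or DBD) made by in vitro transcription/translation (PURExpress), about 100-200 nM. Bound TF was detected with fluorescent anti-GST. Each ungapped 8-mer (which stands for itself and its reverse complement) is scored by the PBM enrichment score (E-score), a modified Wilcoxon-Mann-Whitney statistic from -0.5 to +0.5, computed with the Universal PBM Analysis Suite. Scale: above 0.35 generally sequence-specific binding.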

Row | Sequence | PBM E-score
1 | AGGCTCGA | -0.0943
2 | CCACTCTC | 0.0767
3 | ACAGTCGC | -0.208
4 | ACGACACT | -0.19
5 | AGCCCATC | 0.104
6 | ATTCTAGA | 0.0876
7 | ACGTCGTA | -0.2
8 | CCGGTGGA | 0.0304
9 | AGTGATTG | -0.00936
10 | ACGAGTGG | 0.151
11 | TGGCCCAA | -0.104
12 | CCACGGCG | -0.00202
13 | GTTAATAA | -0.0071
14 | CTGTCGAC | -0.189
15 | GCAAGACA | -0.216
16 | CCAGGTCG | -0.0774
17 | AACGGTCT | -0.233
18 | AAACACTG | 0.0484
19 | TGGTGAAA | 0.0688
20 | CAGGTCAA | -0.173
21 | GGACGCCC | 0.441
22 | CGATCATA | -0.0928

Row | Sequence | PBM E-score
23 | GAGGAAAA | -0.182
24 | AAGGTAGG | -0.0262
25 | CTTCAGTA | 0.00082
26 | CTGCAGCA | 0.099
27 | CGCCGCCC | 0.2
28 | CAGGCAAG | -0.136
29 | ACGCGCTA | -0.0483
30 | ATCTGCGC | 0.0766
31 | GCATGCAA | -0.017
32 | TAAAACCA | 0.0974
33 | CTGTTAGA | 0.198
34 | CTTCCTAC | 0.18
35 | GGATAGCA | 0.0491
36 | GGTCAGGA | 0.199
37 | GGGTCTAC | -0.21
38 | ACCTAAAT | 0.175
39 | CACGGATC | -0.0393
40 | GCACCTGC | -0.0521
41 | GAACCAGC | 0.102
42 | ATAGTGTG | 0.106
43 | CTAACTTA | 0.0766
44 | GACTACAC | -0.0357

Row | Sequence | PBM E-score
45 | AATGATAG | -0.054
46 | ATCGTTTG | -0.0576
47 | GCCAAAGC | -0.0657
48 | ACCCTAAC | -0.00452
49 | GTGAGTGA | -0.0517
50 | ACTAAGCG | -0.0139
51 | ATCGCAGA | -0.0688
52 | CGTGCCCA | 0.0649
53 | TACGGAAA | 0.0785
54 | AACATCAG | 0.0441
55 | CACGGCAA | -0.0534
56 | CACAGGGC | 0.0271
57 | AAAGCCAT | -0.34
58 | CGCATTCC | 0.248
59 | ATCTCAGC | 0.043
60 | TACCGACA | 0.0319
61 | AAATGGTC | -0.0945
62 | CCCCACGC | 0.114
63 | ATGAGCCA | -0.249
64 | CGCCGCTC | 0.0668
65 | ATGATATC | -0.165
66 | CAGACGGG | -0.257

Row | Sequence | PBM E-score
67 | AAATCCCG | -0.117
68 | AGGATTGC | 0.009
69 | TGATTGCA | -0.0307
70 | ACCCGCAC | -0.117
71 | CAGGGATC | -0.0384
72 | AGGACTCG | -0.212
73 | GACAAATA | 0.104
74 | ACACAATC | -0.162
75 | ATCGACCA | -0.0614
76 | CGAGAATC | 0.0803
77 | CGTCTAGC | 0.0268
78 | AATAAGAC | -0.0603
79 | AAGCCCGA | 0.0664
80 | CCCGCCTA | 0.112
81 | GGATTAAC | -0.214
82 | AAGTTCGG | -0.0193
83 | AAGAGATG | -0.143
84 | CTGGACCA | -0.134
85 | CACTATTC | 0.0919
86 | AAGGATGA | -0.116
87 | CATGCACG | -0.314
88 | ACGTTGAA | 0.11

Row | Sequence | PBM E-score
89 | ATGCAACC | 0.0732
90 | GCTACAAA | 0.165
91 | TGTCAGAA | -0.176
92 | AGAATTCC | 0.164
93 | AGACGTTA | -0.0329
94 | GACCTTGA | -0.0333
95 | AAACATCA | -0.0583
96 | AGGTAGGG | 0.0437
97 | ACTTCGAG | 0.196
98 | ATCGGCTC | 0.00312
99 | ACACTTGG | -0.091
100 | GGTGCCAA | 0.27
101 | GATAGTTA | 0.041
102 | AATTCGAA | 0.0943
103 | CTGGTCGA | -0.3
104 | AGGAGCAA | -0.132
105 | CATGGATC | -0.14
106 | AGTATGCC | -0.208
107 | CTAGCTCA | -0.115
108 | CCGCAAAG | -0.0268
109 | GCCCGATA | 0.0461
